Experiments:
Details in all cases: 72 h
[1] = test system: Caco-2; experiment: cell viability relative to DMSO; higher = less toxic
[2] = test system: Calu-3; experiment: as above
[3] = test system: HepG2; experiment: as above
[4] = test system: U2OS; experiment: as above
[5] = test system: Vero E6; experiment: as above
[6] = test system: Caco-2; experiment: relative viability EC50 (midpoint between 100% and the lowest measured viability); higher = less toxic
[7] = test system: Calu-3; experiment: as above
[8] = test system: HepG2; experiment: as above
[9] = test system: U2OS; experiment: as above
[10] = test system: Vero E6; experiment: as above
[11] = test system: Caco-2; experiment: drug sensitivity score (DSS) for viability; higher = more toxic; extreme values may be limits of the assay
[12] = test system: Calu-3; experiment: as above
[13] = test system: HepG2; experiment: as above
[14] = test system: U2OS; experiment: as above
[15] = test system: Vero E6; experiment: as above

Cc1ccccc1-n1c(Cn2nc(-c3cccc(O)c3)c3c(N)ncnc32)nc2cccc(C)c2c1=O [PIK-294]
cell viability [%]
Details | [1] | [2] | [3] | [4] | [5]
1 nM | 105 | 97.3 | 99.6 | 95.6 | 104
10 nM | 97.4 | 94 | 111 | 96.1 | 103
100 nM | 107 | 96.7 | 104 | 99.6 | 102
1000 nM | 95 | 88.3 | 97.1 | 94.9 | 95.9
10000 nM | 76.5 | 82.9 | 87.4 | 94.4 | 88.7

Details | drug sensitivity score | relative viability EC50 [µM]
[6] | – | > 10
[7] | – | > 10
[8] | – | > 10
[9] | – | > 10
[10] | – | > 10
[11] | 1.6 | –
[12] | 0.8 | –
[13] | 0.2 | –
[14] | 0 | –
[15] | 0.1 | –
